{"source": "PubChem BioAssay AID1347417", "about": "(National Center for Advancing Translational Sciences (NCATS), 2020)", "note": "Out of some 120,000 compounds screened, about 5,300 (4.4%) were called active. Inconclusive results, whose numbers are uncertain, are shown with a selection of clear calls. Calls come from the whole dose curve; as a rule, active = well fitted inhibition curve with a large enough effect; inconclusive = small, poorly fitted or top-dose-only effect; inactive = no such curve, though single readings can be large or run the other way. Potencies beside an inconclusive call are fits to weak or partial responses and may not hold up. Potency is the fitted concentration of half-maximal effect; tags give direction and shape of the fitted curve."}
{"assay": "qHTS Primary assay for Inhibitors of Plasmodium falciparum Dd2 growth in vitro; note: nearly all actives have a fitted effect of over 65% in size", "settings": "P. falciparum Dd2 growth, SYBR Green, 72 h; series mostly up to 28.9 µM", "outline": "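Readout: SYBR Green fluorescence, 485 nm excitation, 535 nm emission, after ~16 h lysis at 37C. Before that, Dd2-infected red cells (2.5% hematocrit) grew 72 h with compound, 29 uM top final concentration.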"}
{"smiles": "Cc1ccc(-n2nc(C)c([C@H]3C=C[C@@H](OC(=O)Nc4ccc(C(C)C)cc4)C3)c2C)cc1Cl", "Potency": "inconclusive: 11.2 µM [inhibitor, partial curve, poor fit]"}
{"smiles": "c1ccc(Cc2noc(-c3nc(-c4ccc5c(c4)OCO5)no3)n2)cc1", "Potency": "inactive"}
{"smiles": "CC1CN(C(=O)c2csc(-c3ccc(C(F)(F)F)cc3)n2)CCCO1", "note": "(stereo unspecified)", "Potency": "inconclusive: 17.8 µM [inhibitor, single point]"}
{"smiles": "O=c1c2cc(-c3cccs3)nn2ccn1CC(O)c1ccccc1", "note": "(stereo unspecified)", "Potency": "inconclusive: 1.41 µM [inhibitor, partial curve]"}
{"smiles": "O=C(NC1CCOCC1)c1ccnc(-c2nnc3ccc(Nc4ccccc4)nn23)c1", "Potency": "inconclusive: 31.6 µM [inhibitor, single point]"}
{"smiles": "COC(=O)c1ccc2nc(CO[C@H]3CN(Cc4ccc5c(c4)OCO5)C[C@H]3F)[nH]c2c1", "Potency": "active: 8.91 µM"}
{"smiles": "COc1ccc2nc(NS(=O)(=O)c3ccc(C)cc3)c(Nc3cc(Cl)ccc3OC)nc2c1", "Potency": "inconclusive: 7.94 µM [inhibitor, partial curve, poor fit]"}
{"smiles": "CCOc1ccccc1C(=O)N1CCc2[nH]nc(-c3ccc(F)c(F)c3)c2C1", "Potency": "inconclusive: 17.8 µM [inhibitor, partial curve, poor fit]"}
{"smiles": "COc1ccc(-c2cc(N3CCCN(C(=O)Cc4c[nH]c5ccccc45)CC3)n[nH]2)cc1", "Potency": "inconclusive: 3.16 µM [inhibitor, single point]"}
{"smiles": "Cn1nc(-c2nncn2CC2CC2)c2c1CCN(C(=O)CCC(=O)N1CC(=O)Nc3ccccc31)C2", "Potency": "inconclusive: 12.6 µM [inhibitor, single point]"}
{"smiles": "Cc1ccc(C(=O)N2CCc3nc(C(C)C)nc(-c4ccc(Cl)cc4)c3CC2)cc1", "Potency": "inconclusive: 12.6 µM [inhibitor, partial curve, poor fit]"}
{"smiles": "CCOc1ccc(CC(=O)NCCc2csc3nc(-c4ccccc4F)nn23)cc1", "Potency": "inconclusive: 1.12 µM [inhibitor, partial curve, poor fit]"}
{"smiles": "Cc1ccc(Cl)cc1N1CCN(C(c2ccc(F)cc2)c2nnc(-c3ccccc3)o2)CC1", "note": "(stereo unspecified)", "Potency": "active: 7.94 µM"}
{"smiles": "COc1ccc(-c2cc(C(=O)N3CCN(c4ccccc4OC)CC3)c3cc(C(C)C)ccc3n2)cc1", "Potency": "inconclusive: 3.98 µM [inhibitor, single point]"}
{"smiles": "CS(=O)(=O)N1C[C@@H]2C[C@H](C1)c1ccc(NC(=O)c3ccncc3)c(=O)n1C2", "Potency": "inconclusive: 12.6 µM [inhibitor, single point]"}
{"smiles": "Cc1nc(-c2cccc(Cl)c2)n(CC(=O)Nc2cccc(C(C)C)c2)c(=O)c1CCO", "Potency": "active: 5.01 µM"}
{"smiles": "CCc1[nH]c2ccc(CNC(=O)C3CC(=O)Nc4ccccc43)cc2c1C", "note": "(stereo unspecified)", "Potency": "inconclusive: 14.1 µM [inhibitor, single point]"}
{"smiles": "CCn1ccc(C(=O)N2CCCN(S(C)(=O)=O)C(c3ccccc3)CC(=O)NCC2)n1", "note": "(stereo unspecified)", "Potency": "inactive"}
{"smiles": "C[C@H]1[C@@H]2[C@@H](O)C([C@H](C)C(=O)NC3CCCC3)CC[C@@]2(C)CC[C@@H]1NC(=O)c1ccncc1", "note": "(stereo partly specified)", "Potency": "inconclusive: 17.8 µM [inhibitor, single point]"}
{"smiles": "CC(C)(C)c1csc(NC(=O)Cn2nc3c(cc2=O)CCCC3)n1", "Potency": "inactive"}
{"smiles": "Cc1ccc(-c2noc([C@@H]3Cc4nc[nH]c4CN3C(=O)c3ccccc3)n2)cc1", "Potency": "inconclusive: 31.6 µM [inhibitor, single point]"}
{"smiles": "O=C(NCCC1CCN(C(=O)Nc2cccc(F)c2)CC1)c1cccs1", "Potency": "inconclusive: 8.91 µM [inhibitor, partial curve, poor fit]"}
{"smiles": "COc1ccc(Cn2c3c(c(=O)n2Cc2ccccc2)CCN(C(=O)c2cccc(N(C)C)c2)C3)cc1", "Potency": "inconclusive: 7.08 µM [inhibitor, partial curve, poor fit]"}
{"smiles": "CCCN1C(=O)Cc2cc(C(=O)NCc3ccccc3C(F)(F)F)ccc21", "Potency": "inactive"}
{"smiles": "CCOc1ccc(S(=O)(=O)Nc2ccc3c(c2)c(C(C)=O)c(C)n3S(=O)(=O)c2ccc(OCC)cc2)cc1", "Potency": "inconclusive: 10 µM [inhibitor, single point]"}
{"smiles": "O=C(O)Cn1nc(-c2ccccc2)nc1C1CC(=O)N(Cc2cccnc2)C1", "note": "(stereo unspecified)", "Potency": "inactive"}
{"smiles": "CCOC(=O)C1CCN(C(=O)CSc2c3c(nc4ccc(Cl)cc24)CCCC3)CC1", "Potency": "active: 14.1 µM"}
{"smiles": "CCN1c2cc(C(=O)N3CCOCC3)ccc2C(=O)N2CCCCCC21", "note": "(stereo unspecified)", "Potency": "inactive"}
{"smiles": "O=C1CCN(C(=O)COc2ccc(F)cc2)CCCC(c2nc(-c3ccccc3)no2)CCN1", "note": "(stereo unspecified)", "Potency": "inconclusive: 2.51 µM [inhibitor, single point]"}
{"smiles": "CN(Cc1ccccc1)Cc1cn([C@H]2CO[C@H]3[C@@H]2OC[C@@H]3NC(=O)c2ccc(N(C)C)cc2)nn1", "Potency": "inactive"}
{"smiles": "CCN1c2cc(C(=O)NCc3ccc(F)cc3F)ccc2C(=O)N2CCCCCC21", "note": "(stereo unspecified)", "Potency": "inconclusive: 3.98 µM [inhibitor, single point]"}
{"smiles": "CN(C)C[C@@H]1CN(c2ncccn2)C[C@H]1NC(=O)c1ccncn1", "Potency": "inactive"}
{"smiles": "O=C(NCc1ccccc1)C1CCC(CNS(=O)(=O)c2ccc(Br)s2)CC1", "note": "(stereo unspecified)", "Potency": "inactive"}
{"smiles": "Cc1ccccc1S(=O)(=O)N1CCN(C2CCN(CCc3ccccc3)C2=O)CC1", "note": "(stereo unspecified)", "Potency": "inactive"}
{"smiles": "COc1ccc(CNCC2(COc3cccnc3)C[C@@H](O)[C@@H](O)C2)cc1", "note": "(stereo partly specified)", "Potency": "inactive"}
{"smiles": "CCCN1CCN(C(=O)C2(c3ccc(NC(=O)C(C)C)cc3)CCCCC2)CC1", "Potency": "inconclusive: 10 µM [inhibitor, single point]"}
{"smiles": "CCOc1ccccc1N1CC(c2nc3ccccc3n2CCCOc2ccccc2OC)CC1=O", "note": "(stereo unspecified)", "Potency": "inactive"}
{"smiles": "O=C(Nc1cccc(F)c1)C1CCN(C(=O)N2CC3CC(C2)[C@H]2CCCC(=O)N2C3)CC1", "note": "(stereo partly specified)", "Potency": "inactive"}
{"smiles": "O=C1CO[C@H]2CCN(Cc3ccc(O)cc3)CC[C@@H]2N1c1ccccc1", "Potency": "inconclusive: 1.12 µM [inhibitor, full curve, poor fit]"}
{"smiles": "N#Cc1ccccc1Cn1nnc2c(=O)[nH]c(C3CCCN(S(=O)(=O)c4ccc(F)cc4)C3)nc21", "note": "(stereo unspecified)", "Potency": "inactive"}
{"smiles": "Cc1ccc(NC(=O)COc2ccc(-c3nnc4n3CCCC4)cc2)cc1C", "Potency": "inconclusive: 20 µM [inhibitor, partial curve, poor fit]"}
